This note sets out measurements from article PMC9797988 (The Journal of Cell Biology, 2022).

One assay has as its target GST-LC3C (human, UniProt Q9BXW4 1-126). Put plainly: pull-down.
The target of the next assay is GST-[…]2 (human, UniProt P60520). Put plainly: pull-down.
UniProt P60520, sequence (P60520 whole entry): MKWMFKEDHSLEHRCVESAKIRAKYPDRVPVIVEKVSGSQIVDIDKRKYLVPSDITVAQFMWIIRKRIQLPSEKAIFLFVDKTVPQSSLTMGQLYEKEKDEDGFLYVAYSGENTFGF

GST-LC3C, sequence (Q9BXW4 1-126): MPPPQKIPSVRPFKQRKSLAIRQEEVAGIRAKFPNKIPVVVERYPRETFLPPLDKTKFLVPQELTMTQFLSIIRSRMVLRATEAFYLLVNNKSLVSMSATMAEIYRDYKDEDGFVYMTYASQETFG

B1: myc-TNIP[…]E/S123E, 35S-labelled (natural protein)
chain: not shown
modifications: 35S-methionine labelled
For the molecule B1, the entries for the “fold increase of binding against wild-type TNIP1” value with GST-LC3C and with GST-[…]2 were 4.4 fold and 5.8 fold, respectively.
